This is an account of results in PubChem BioAssay AID1963827 (Molecular Pharmacology Branch, DTP, NCI, 2024).

The test system of the assay is 994946-033-R-J1-PDC complex spheroid viability. The assay is described as follows: Anticancer human tumor 994946-033-R-J1-PDC patient-derived melanoma cell line growth inhibition [POLQ]. The following applies: stronger effect = lower value. On the procedure: Multicellular complex tumor spheroid response to Polymerase (POL) inhibitors (novobiocin, ART-558, RP6685) in combination with a variety of drugs and investigational agents in selected tumor cell lines
The POL inhibitors (novobiocin, ART-558, and RP6685) were evaluated both individually and in combination with standard of care and investigational anticancer small molecules within a complex spheroid model of solid tumors. . Complex spheroids include a stromal component modeled by human endothelial cells (HUVEC) and fibroblasts modeled by human mesenchymal stem cells (MSCs). The concentration ranges selected for each drug and investigational agent were based upon clinically achievable concentrations if the clinical Cmax of the agent was known.
Compounds. The drugs and investigational agents: novobiocin (NSC847541), ART-558 (NSC835418), RP-6685 (NSC848927), peposertib (NSC802822), ceralasertib (NSC780249), elimusertib (NSC800525), camonsertib (NSC841442), AZD-1390 (NSC803789), olaparib (NSC753686), talazoparib (NSC767125), rucaparib (NSC756644), sotorasib (NSC818433), MRTX-1133 (NSC836407), SN-38 (NSC673596), topotecan (NSC609699), epotoside (NSC141540), doxorubicin (NSC123127), gemcitabine (NSC613327), 5-fluorouracil (NSC19893), paclitaxel (NSC125973), vemurafenib (NSC761431), MSA-2 (NSC828583), SN-011 (NSC837082), adavosertib (NSC754352), prexasertib (NSC758257), carboplatin (NSC241240) and oxaliplatin (NSC266046), were obtained from the National Cancer Institute (NCI) Developmental Therapeutics Program Chemical Repository (21). The FDA-approved anticancer drug set is available from the Developmental Therapeutics Program at https://dtp.cancer.gov/organization/dscb/obtaining/. […] The stock solutions were prepared in dimethyl sulfoxide (DMSO, Sigma-Aldrich, St. Louis, MO, cat. D2650), except for the platinum compounds which were prepared in saline (Quality Biological, Gaithersburg, MD, cat. 114-055-101), at 800-fold the tested concentration and stored at -70 degrees C prior to their use. All drugs and investigational agents were tested over a range starting from a high concentration at or near the clinical Cmax and decreasing in half-log increments. If the clinical Cmax for an agent had not been determined, the highest concentration tested was 10 microM, except for SN-38, which was tested at a high concentration of 1 microM.
Cell Culture. All cells were maintained in an incubator at 37 degrees C and 5% CO2 with 95% humidity. The PDC lines were cultured according to standard operating procedures established by the NCI PDMR (https://pdmr.cancer.gov). Table 3 of the manuscript, lists the cell lines along with the number of the three cell types plated to form the mct-spheroids and media for tumor cell growth. After thawing, all PDC lines, except 997537-175-T-J1-PDC and 415267-285-R-J2-PDC, were cultured in Matrigel-coated flasks prepared with a working solution of 1X Ham's F-12 nutrient mix, without supplementation (Thermo Fisher Scientific, cat. 11765054), 100 U/mL penicillin-streptomycin (Thermo Fisher Scientific, cat. 15140122), and 2.5% Matrigel (Corning Inc., Corning, NY, cat. 354248) for the first three passages. The two PDC lines 997537-175-T-J1-PDC and 415267-285-R-J2-PDC were cultured on uncoated flasks. The 857933-349-R-J2-PDC line was cultured in 6C/Colon 1B media containing advanced DMEM/F-12 (Thermo Fisher Scientific, cat. 12634028), 10 mM HEPES (Thermo Fisher Scientific, cat. 15630080), 1X GlutaMAX supplement (Thermo Fisher Scientific, cat. 35050061), 0.1 mg/mL primocin (InvivoGen, San Diego, CA, cat. ant-pm-2), 10% defined fetal bovine serum, heat inactivated (HyClone Laboratories Inc., Logan, UT, cat. SH30070.03HI), 50% L-WRN conditioned media (ATCC, cat. CRL-3276), 1.25 mM N-Acetyl-L-cysteine (Sigma-Aldrich, cat. A9165), 10 mM nicotinamide (Sigma-Aldrich, cat. N0636), 1X B-27 supplement (Thermo Fisher Scientific, cat. 17504044), 1X N-2 supplement (Thermo Fisher Scientific, cat. […]

The source holds more than one record for some entries. They are shown here; other results are not. There may be further records. The values listed for one entry repeat one measurement in other runs, samples, wells, individuals or studies. Signs of the kind (2×) say how often a value occurs here. Marks such as [2022-09] give the month of the run.
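Note: spheroids exposed to drugs for 7 days; 100% = DMSO vehicle treated spheroids.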

Turning to `Nc1ccc(C#CCN(C(=O)Cc2ncc(C(F)(F)F)cc2C(F)(F)F)c2ccc(F)cc2)nn1`, the viability, T/C is, setting by setting: (compound alone 0.0316 µM) 75.5, 80.5, 99.4, 80.7, 105, 110, 101, 95.1, 79.8, 80.8, 112, 82, 94.3%; (compound alone 0.1 µM) 75.7, 119, 111, 93.7, 83.5, 121, 88.9, 104, 82.6, 81.1, 92.5, 90.3, 110%; (compound alone 0.316 µM) 96, 97, 101, 76.7, 106, 91.8, 82.8, 84.4, 80.9, 68, 108, 90.3, 76.3%; (compound alone 1 µM) 104, 91.8, 89.8, 95.3, 78.7, 96.5, 102, 92.8, 77.5, 86.3, 108, 82.8, 116%; (compound alone 3.16 µM) 101, 93.4, 103, 98.5, 79, 77.4, 102, 62.5, 77.9, 87.3, 96, 92.4, 74%.

Consider `COC1C(OC(N)=O)C(O)C(Oc2ccc3c(O)c(NC(=O)c4ccc(O)c(CC=C(C)C)c4)c(=O)oc3c2C)OC1(C)C` (stereo unspecified), for which the viability, T/C was 130, 92.3, 95.4, 90, 110, 104 (2×), 105, 101, 108, 98.9, 106, 90.1% (compound alone 0.0316 µM); 85.6, 127, 99.4, 120, 101, 98.8, 82.9, 95, 91.9, 103, 98.9, 79.3, 95.3% (compound alone 0.1 µM); 85.8, 118, 88.5, 103, 74, 97.1, 106, 81.7, 75.3, 101, 83.6, 115, 68.8% (compound alone 0.316 µM); 83.2, 108, 81.8, 116, 93.2, 89.6, 130, 117, 99.5, 86.5, 100, 80.9, 110% (compound alone 1 µM); 103 (2×), 90, 100, 86.4, 86.7, 98.5, 96.1, 91.2, 92.2, 85.2, 85, 116% (compound alone 3.16 µM); 113, 102 (2×), 107, 79.8, 96.2, 82.7, 105, 99.8, 81.7, 94.3, 120, 89.5% (compound alone 10 µM).

Take `Cc1cccc(N(C)C(=O)C2C(O)CCN2c2nc(C)cc(C(F)(F)F)c2C#N)c1` (stereo unspecified): the viability, T/C was 84.8, 92.3, 96.9, 110, 98.9, 89, 86, 85.2% [2023-10] and 102, 94.4, 84.1, 107, 113% [2023-11] (compound alone 0.0316 µM); 86.3, 86.7, 96.9, 114, 113, 89.2, 96.8, 98.9% [2023-10] and 105, 97.4, 84.1, 81.4, 99.2% [2023-11] (compound alone 0.316 µM); 83.4, 93.9, 104, 79.3, 109, 98.7 (2×), 102% [2023-10] and 72.7, 89, 92.9, 80.9, 94% [2023-11] (compound alone 1 µM); 96.8, 85.2 (2×), 105, 110, 106, 82.8, 81% [2023-10] and 92.7, 79.8, 87.5, 95.8, 75.7% [2023-11] (compound alone 3.16 µM); 91.5, 67, 95.6, 84.3, 109, 122, 91.3, 79.1% [2023-10] and 90, 85.3, 89.1, 115, 98.8% [2023-11] (compound alone 10 µM).
